Screen size: about 310,000 compounds; about 2,200 (0.71%) showed an effect of 50% or more. The effect is printed as a negative number. Some of the results follow.
molecular target: human ether-à-go-go-related gene (hERG) potassium channel (human, UniProt Q12809); experiment: primary screen, population patch clamp on CHO cells stably expressing hERG
Sequence (Q12809 whole entry, looked up): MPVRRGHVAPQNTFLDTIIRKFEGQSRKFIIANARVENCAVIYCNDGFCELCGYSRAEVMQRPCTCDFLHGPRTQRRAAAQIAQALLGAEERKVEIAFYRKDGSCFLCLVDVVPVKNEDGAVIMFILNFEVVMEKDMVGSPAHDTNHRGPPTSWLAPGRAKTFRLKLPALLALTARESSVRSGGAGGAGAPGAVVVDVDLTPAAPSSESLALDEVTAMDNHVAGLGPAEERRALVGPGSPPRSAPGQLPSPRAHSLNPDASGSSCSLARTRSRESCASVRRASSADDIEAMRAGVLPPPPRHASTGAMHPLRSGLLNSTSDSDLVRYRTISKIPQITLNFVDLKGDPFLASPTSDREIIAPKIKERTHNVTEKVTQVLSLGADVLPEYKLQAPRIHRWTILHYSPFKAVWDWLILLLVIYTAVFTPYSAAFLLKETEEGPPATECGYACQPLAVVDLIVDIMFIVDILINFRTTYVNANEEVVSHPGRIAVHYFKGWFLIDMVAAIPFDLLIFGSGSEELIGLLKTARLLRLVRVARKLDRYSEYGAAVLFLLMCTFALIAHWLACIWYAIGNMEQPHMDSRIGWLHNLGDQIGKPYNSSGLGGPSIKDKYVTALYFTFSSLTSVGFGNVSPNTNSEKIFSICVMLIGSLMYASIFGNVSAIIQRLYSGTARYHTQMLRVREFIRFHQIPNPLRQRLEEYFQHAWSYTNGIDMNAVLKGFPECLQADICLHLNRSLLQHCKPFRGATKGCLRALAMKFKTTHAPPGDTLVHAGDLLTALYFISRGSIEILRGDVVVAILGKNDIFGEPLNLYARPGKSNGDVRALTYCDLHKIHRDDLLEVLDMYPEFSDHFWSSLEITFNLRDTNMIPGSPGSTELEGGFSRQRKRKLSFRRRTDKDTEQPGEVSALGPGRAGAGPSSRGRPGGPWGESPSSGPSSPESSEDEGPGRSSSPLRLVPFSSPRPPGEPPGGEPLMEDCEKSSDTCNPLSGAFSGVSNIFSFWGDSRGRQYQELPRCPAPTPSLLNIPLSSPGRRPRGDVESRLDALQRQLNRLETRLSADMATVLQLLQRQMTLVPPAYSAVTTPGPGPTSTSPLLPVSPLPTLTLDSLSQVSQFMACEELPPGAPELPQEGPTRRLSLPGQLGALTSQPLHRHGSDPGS

Compound | hERG current change (%, negative = inhibition) at 1uM [%]
Cc1ccc(CNS(=O)(=O)NCc2cccs2)cc1 | 8.05
CC(C)NC(=O)c1ccccc1NC(=O)c1ccccc1N(C)S(C)(=O)=O | 13.6
CCCCc1ccc(NC(=O)C(C)CC)cc1 (stereo not shown) | -12.5
O=C(CCCn1nnnc1CN1CCOCC1)N1CCC(c2ccccc2Cl)C1 (stereo not shown) | 8.33
CC1Nc2ncnc(N3CCN(c4ccccc4)CC3)c2N(Cc2ccc(Br)cc2)C1=O.O=C(O)C(F)(F)F (stereo not shown) | 6.85
CCn1c(C)c2c(C)nnc(C)c2c1C | 6.86
CCCS(=O)(=O)c1nc(S(=O)(=O)c2ccc(C)cc2)c(N2CCN(CCO)CC2)s1 | 4.23
CC(=O)c1c(C)[nH]c(C(=O)COC(=O)c2ccc(Cl)nc2)c1C | 14.1
CCCCn1c(O)c(C(CC)=NCc2ccc(F)cc2)c(=O)[nH]c1=O | 16.9
CN(C)c1ccc(C2/C(=C(/O)c3ccc(Br)cc3)C(=O)C(=O)N2C)cc1 (stereo not shown) | -1.38
Cc1ccc(N2CCN(S(=O)(=O)c3c(C)noc3C)CC2C)cc1 (stereo not shown) | 3.24
COc1cccc(CN2CCN(C(=O)c3cc(-c4ccccn4)nc4ccc(Cl)cc34)CC2)c1 | 13.3
O=C(O/N=C1\CCS(=O)(=O)c2sccc21)c1ccc(F)cc1 | 12.3
COc1ccc(N2C(=S)N(C(=O)c3ccccc3)C(=Nc3ccccc3)C2=Nc2ccccc2)cc1 | -4.84
Cc1ccc2nc(-c3ccccc3O)c(Nc3ccc4c(c3)OCCO4)n2c1 | 11.5
CC(=O)N1CCc2cc(S(=O)(=O)NCCN3CCC(C)CC3)ccc21 | 11.4
CCOC(=O)CNC(=O)CSc1nc2cccnc2n1C | -1.34
O=C(CCCN1C(=O)/C(=C/c2ccc3c(c2)OCO3)SC1=S)Nc1ccc(C(=O)O)cc1 | 6.95
O=C(NNC(=S)NC(=O)c1ccccc1[N+](=O)[O-])c1ccccc1[N+](=O)[O-] | 15.8
CC(=O)Nc1ccc(NC(=O)CCCc2c[nH]c3ccccc23)cc1 | 11
CCC(=O)Nc1nnc(CCc2ccccc2)s1 | 15.6
C=CCn1c(COc2ccccc2-c2ccccc2)nnc1SCC(=O)NC(=O)NCc1ccco1 | 21.1
CCOC(=O)N1CCN(C(=O)C2CCN(S(=O)(=O)c3ccc(OCC)cc3)CC2)CC1 | 2.62
CC1=NCCN1S(=O)(=O)c1cccc([N+](=O)[O-])c1 | 16.5
O=C(C1CC1)N1CCc2cc(Br)cc(S(=O)(=O)NCc3ccccn3)c21 | 20
O=C(CSc1nc(-c2ccccc2)c(-c2ccccc2)[nH]1)NCc1ccco1 | 4.85
COc1ccc(OCc2cc(C(=O)N(C)Cc3cc(C4CC4)n[nH]3)no2)c(Cl)c1 | 10
COCC(C)NS(=O)(=O)c1ccc(NC(=O)C(Cc2ccccc2)NC(N)=O)cc1 (stereo not shown) | 2.58

Compound | hERG current change (%, negative = inhibition) at 1uM [%]
COC(=O)c1ccc(CSc2nc3ccccc3[nH]2)o1 | 8.73
Cc1nn(Cc2ccccc2)c(Cl)c1C(=O)OCC(=O)Nc1cccc2ccccc12 | 7.04
O=C(O)c1c[nH]c2ccc(S(=O)(=O)N(CCCl)CCCl)cc12 | -3.23
Cc1cc(C=NCCO)c(C)n1-c1cc(Cl)ccc1Cl | 1.44
O=C(COC(=O)c1ccc(O)cc1)Nc1ccc(Cl)cc1C(=O)c1ccccc1 | 17.7
COc1ccc(NC2CCCN(C(=O)c3cccc(C(F)(F)F)c3)C2)cc1OC (stereo not shown) | 9.2
CS(=O)(=O)C1=NSC2=NC(=O)/C(=C\c3ccc(OS(=O)(=O)c4ccccc4)cc3)C(=N)N21 | 16.8
CCOc1ccc(OCc2ccc(C(=O)N3CCOCC3)cc2)cc1 | 15.7
CCOc1ccc(NC(=S)Nc2ccccc2C2(C)CC2)cc1 | 5.96
Cc1ccc(S(=O)(=O)Nc2ccc(C(=O)N3CCN(c4ccccc4O)CC3)cc2)cc1[N+](=O)[O-] | 8.13
O=C(CSc1nnc(NC(=O)c2c(F)cccc2F)s1)NCc1ccccc1 | 11.5
Cc1cc(NCCCn2ccnc2)n2nc(C)c(-c3ccccc3)c2n1 | -25.4
O=C(CNC(=O)c1cccs1)Nc1ccncc1 | 6.86
Cn1nc(OC(=O)Nc2ccccc2)cc1C(F)(F)F | 9.18
O=C(Cc1ccccc1Cl)Nc1cccc(S(=O)(=O)N2CCOCC2)c1 | 9.27
COc1ccc2c(c1)NC(c1ccc(N(C)C)cc1)c1cccn1-2 (stereo not shown) | 16
COc1ccccc1NC(=O)CSc1nnc(-c2ccccc2)o1 | 10.2
COc1ccccc1-c1coc2cc(OCC(=O)OCc3ccccc3)ccc2c1=O | 16.2
N/C(CC(=O)NC1CCCCC1)=N\OCC(=O)Nc1ccc(Cl)c(Cl)c1 | 2.36
Cl.O=C(C(c1ccccc1)c1ccccc1)N1CCN(CC(O)COc2ccccc2)CC1 (stereo not shown) | -2.46
O=C(Nc1cc(Cl)cc(Cl)c1)c1cccnc1 | 12.8
O=C(NCc1ccncc1)Nc1cc(Cl)ccc1Cl | 5.13
O=C(c1ccc([N+](=O)[O-])cc1)N1CCc2ccccc2C1 | -8.98
COc1ccc(S(=O)(=O)NC2CC2)cc1Br | 19.2
COc1ccc(N(C(=O)c2snc(C(N)=O)c2N)C(C(=O)NCc2ccccc2)c2ccc(F)cc2)c(OC)c1 (stereo not shown) | 6.39
CC(C)NC(=S)N/N=C/c1cc(Br)ccc1O | 5.01
CSc1ccccc1NC(=O)CN(C)C(=O)Cc1c[nH]c2ccccc12 | 4.94
